Data taken from the RNAGym collection of RNA variant scans (doi:10.1093/nar/gkz1192).
The source gives no read counts; variants with many changes may rest on few reads.

B1: CPEB3 Ribozyme (parent)
chain: UAACAGGGGGCCACAGCAGAAGCGUUCACGUCGCAGCCCCUGUCAGAUUCUGGUGAAUCUGCGAAUUCUGCUGUAUAUCUC

Variants of: B1
Assay: self-cleavage, relative activity (ratio to wild type); higher = more cleavage; in vitro, sequencing
Summary of the method: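 After error-prone PCR and barcoding, CPEB3 ribozyme mutant libraries were transcribed with T7 RNA polymerase at 37°C for 5 hours, then given 15 min with DNase I before an EDTA stop, and they cleaved during both steps. Reverse transcription with template switching preceded Illumina sequencing. Relative activity divides a variant's cleaved/total read fraction by the unmutated ribozyme's. At least 5 reads were required per variant, and three batches were averaged.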

Row | Variant | self-cleavage
1 | A3G G52A A65G U67A | 0.26
2 | A3G G52U U78A | 1.18
3 | A3G G55A U58C | 0.29
4 | A3G G61A A64G | 0.75
5 | A3G G70A U80C | 0.54
6 | A3G U25A A28U C32A U67C | 0.23
7 | A3G U25A A47G A57G | 0.08
8 | A3G U25A A56G U74A A75G | 0.08
9 | A3G U25A A57G | 0.51
10 | A3G U25A G53A U74C | 0.49
11 | A3G U25A U26A A56U | 0.09
12 | A3G U25A U26A U49C U76A U78C | 0.11
13 | A3G U25A U31A A47G A65U | 0.04
14 | A3G U25C A28G U41C U67A U80C | 0.25
15 | A3G U25C A35U U58A | 0.29
16 | A3G U25C A45G A56G U69C | 0.1
17 | A3G U25C A45G U58A U80C | 0.12
18 | A3G U25C A45U | 0.56
19 | A3G U25C A56G U80C | 0.33
20 | A3G U25C A56U | 0.44
21 | A3G U25C C38A | 0.14

Row | Variant | self-cleavage
22 | A3G U25C C38U U76C | 0.6
23 | A3G U25C C39U U41C G73C | 0.1
24 | A3G U25C C40U U41C | 0.13
25 | A3G U25C G33A A64U | 0.2
26 | A3G U25C U26A C39A A57U U66C | 0.16
27 | A3G U25C U26C A45U U69G | 0.3
28 | A3G U25C U26C U41A U67C | 0.14
29 | A3G U25C U31A U67C | 0.28
30 | A3G U25C U31C A75G | 0.07
31 | A3G U25C U41C A45G A56G A64U | 0.45
32 | A3G U25G A45G A57U | 0.47
33 | A3G U25G U26C | 0.2
34 | A3G U25G U31C U72C | 0.15
35 | A3G U25G U49A U72A | 0.1
36 | A3G U26A A28G G30A U41A U66C U67A | 0.24
37 | A3G U26A A35G | 1.25
38 | A3G U26A A35G A56U A75G | 1.21
39 | A3G U26A A56U U74C | 0.56
40 | A3G U26A A57G A75G | 0.69
41 | A3G U26A C38U C50A U74A | 0.68
42 | A3G U26A C38U U41G U58C A64U U69C | 0.08

Row | Variant | self-cleavage
43 | A3G U26A G30A U48A U72G | 0.07
44 | A3G U26A G46A U54G A77U | 0.36
45 | A3G U26A G46A U76C C81A | 0.15
46 | A3G U26A G46U U72C | 0.4
47 | A3G U26A U41A A45U G46U | 0.3
48 | A3G U26A U41C | 0.87
49 | A3G U26A U54A | 0.85
50 | A3G U26A U74C A77U | 1.16
51 | A3G U26C A28C | 0.52
52 | A3G U26C A28C A35G | 0.55
53 | A3G U26C A35G A45U U72A | 0.13
54 | A3G U26C A35U A45U | 0.14
55 | A3G U26C A57G U66C | 0.22
56 | A3G U26C A64G C68A U69G | 0.25
57 | A3G U26C A65G | 0.32
58 | A3G U26C C39U U72C U74C | 0.38
59 | A3G U26C C40A | 0.09
60 | A3G U26C C40A A45G | 0.04
61 | A3G U26C C44U | 0.17
62 | A3G U26C C79A | 0.56
63 | A3G U26C G53A A64U C79U | 0.1

Row | Variant | self-cleavage
64 | A3G U26C G55U | 0.56
65 | A3G U26C U31C U80C | 0.57
66 | A3G U26C U31G A64G U66A | 0.36
67 | A3G U26C U41A U54G U72A | 0.11
68 | A3G U26C U41A U72A U76A | 0.53
69 | A3G U26C U41C A45U U49C | 0.08
70 | A3G U26C U41C A64G G70C | 0.14
71 | A3G U26C U41G U49C U60C | 0.43
72 | A3G U26C U43G U48C U58C G61A U67C | 0.11
73 | A3G U26C U48C | 0.12
74 | A3G U26C U48C A56U U72A | 0.12
75 | A3G U26C U49C A56G U60C | 0.51
76 | A3G U26C U51C A64G | 0.09
77 | A3G U26C U60A U74A | 0.36
78 | A3G U26C U66C | 0.4
79 | A3G U26C U67C | 0.2
80 | A3G U26C U67C U76A | 0.32
81 | A3G U26C U69C | 0.26
82 | A3G U26C U72G U76A | 0.37
83 | A3G U26C U74C | 1.02
